# Experimental data reported in PubChem BioAssay (NCATS).
# “And” between values parts separate entries of the source, which are not always exact repeats. Equal values may be shown once. Inconclusive results, whose numbers are uncertain, are shown with a selection of clear calls. For some assays here: A potency beside an inconclusive call is a rough fit, not a confirmed value. The source made the active and inactive calls. Unless noted, calls follow the shape of the dose curve; as a rule, active = well fitted curve in the direction sought with a large enough effect; inconclusive = small, poorly fitted or top-dose-only effect, or another doubt; inactive = no such curve, though single readings can be large; an effect the other way counts as inactive or inconclusive.
# What was measured:
# [1] = qHTS Validation Assay to Find Inhibitors of Chronic Active B-Cell Receptor Signaling (AID 485345; active = well fitted curve in the direction sought with a large enough effect in the main read-out, with a control signal flat, not every such curve was filed as active; inconclusive = small, poorly fitted or top-dose-only effect, or effect the other way, or a change in a side signal; inactive = no such curve, though single readings can be large or run the other way;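 also: 0% = untreated basal cells and 100% = 10 µM MG-132 proteasome inhibitor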); details: ABC-DLBCL cells, chronic BCR signaling reporter; activity change: CBG luciferase, at 46.1 µM (top of the series)
# Outline: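 TMD8 ABC-DLBCL cells stably carrying doxycycline-inducible IkappaBalpha–green luciferase fusion plus unfused red luciferase; compounds 46 uM to 3 nM, 4 h at 37C with doxycycline. Corrected green/red luminescence ratio normalized to 10 uM MG-132 and basal cell wells; curves fitted.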
# [2] = molecular target: Thioredoxin reductase 1, cytoplasmic (Rattus norvegicus) (UniProt O89049); experiment: qHTS Assay for Inhibitors of Mammalian Selenoprotein Thioredoxin Reductase 1 (TrxR1) (AID 488773); details: Potency: inhibition; also: potency is read from the fitted curve at half-maximal effect; nearly all actives have a fitted effect of over 40% in size
# Outline: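 Steps: enzyme (90 nM) plus NADPH (400 uM final), 5 min at ~22 deg C; compound added, 15 min; selenite (400 uM final) added; fluorescence followed for 8 min. Concentration-response curves derived from the normalized delta values.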
# [3] = molecular target: D(1A) dopamine receptor (Homo sapiens) (UniProt P21728); experiment: HTS Assay for Allosteric Agonists of the Human D1 Dopamine Receptor: Primary Screen for Agonists (AID 488981); also: potency is read from the fitted curve at half-maximal effect; as to activation: 0% is about no effect
# Outline: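 Tetracycline-induced HEK293 Trex D1 cells with forced coupling to calcium, loaded with no-wash calcium dye; kinetic fluorescence read 180 s after compound addition for agonism, then a further 180 s after an EC20 dopamine challenge for potentiation.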
# [4] = NFAT Signaling Pathway (AID 444; active = well fitted curve in either direction with a large enough effect, not every such curve was filed as active; inconclusive = small, poorly fitted or top-dose-only effect, or another doubt;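 also: carbachol stimulus at about its EC50 of 1 µM final; % is scaled to controls: 0 for no effect and ±100 for the full control effect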); details: Jurkat NFAT-bla M1, carbachol, beta-lactamase ratio, 5 h; at 7.69 µM (top of the series) unless noted
# Outline: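 Jurkat cells with NFAT-driven β-lactamase reporter and co-expressed M1 receptor, stimulated with carbachol (final 1 uM, ~EC50), compound titration, 5 h at 37 °C. CCF4 loaded 1 h at RT; 460/530 nm ratio gave %activity and AC50.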
# [5] = molecular target: 3',5'-cyclic-AMP phosphodiesterase 4B (Homo sapiens) (UniProt Q07343); experiment: qHTS Assay for Inhibitors of PDE-IV (AID 607; active = well fitted activation curve with a large enough effect in the main read-out, with a control signal flat, not every such curve was filed as active; inconclusive = small, poorly fitted or top-dose-only effect, or effect the other way, or a change in a side signal; also: potency is read from the fitted curve at half-maximal effect; as to activation (PDE inhibition): % of control where 0% means no effect); details: HEK293 ACTOne CNG channel cells, membrane potential fluorescence; activation (PDE inhibition): at 22.9 µM (top of the series)
# Outline: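 Live HEK293 cells with a modified cyclic nucleotide-gated (CNG) channel report intracellular cAMP via membrane-potential dye fluorescence (ex 535/em 590 nm). Endogenous PDE-IV was targeted. Compounds were tested at up to 22.9 uM final; RO 20-1724 100 uM served as control.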
# [6] = qHTS Assay for Identification of Small Molecule Agonists for Thrombopoietin (TPO) Signaling Pathway (AID 917); also: potency is read from the fitted curve at half-maximal effect
# Outline: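 IL-3-dependent murine pro-B Ba/F3 cells, stably transfected with human TPO receptor and GpIIb-promoter luciferase, are incubated 24 hrs at 37 C with test compound and 26 pM TPO; luciferase signal is read after 10 min at room temperature.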
# [7] = molecular target: Muscarinic acetylcholine receptor M1 (Rattus norvegicus) (UniProt P08482); experiment: qHTS Assay for Antagonists of Acetylcholine Muscarinic M1 Receptor: Measurement of IP-One Response (AID 944); also: potency is read from the fitted curve at half-maximal effect; nearly all actives have a fitted effect of over 75% in size
# [8] = molecular target: M-phase phosphoprotein 8 (Homo sapiens) (UniProt Q99549); experiment: qHTS Validation Assay for Inhibitors for MPP8 Chromodomain Interactions with Methylated Histone Tails (AID 488949); also: nearly all actives have a fitted effect of over 55% in size; also: potency is read from the fitted curve at half-maximal effect;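 as to activity change, negative = inhibition: 50 nM MPP8 with 50 nM peptide preformed then compounds added for 30 min; AlphaScreen signal from MPP8 chromodomain bound to biotinylated H3K9me3 peptide; top concentration of the series differs between compounds; % is scaled to controls: 0 for no effect and ±100 for the full control effect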
# Outline: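 Chemiluminescent proximity assay: histidine-tag capture via nickel acceptor beads, biotin peptide via streptavidin donor beads. Protein and peptide each at 50 nM, pH 7.4, with 30 min incubations at room temperature for complex formation, compound exposure and bead binding.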
# [9] = molecular target: D(1A) dopamine receptor (Homo sapiens) (UniProt P21728); experiment: HTS Assay for Allosteric Agonists of the Human D1 Dopamine Receptor: Primary Screen for Antagonists (AID 488983);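 also: calcium flux response to an EC80 dopamine challenge measured with no-wash dye; nearly all actives have a fitted effect of over 65% in size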; also: potency is read from the fitted curve at half-maximal effect; as to activity change, negative = inhibition: % is scaled to controls: 0 for no effect and ±100 for the full control effect
# Outline: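 Tetracycline-induced HEK293 T-REx cells expressing force-coupled D1 were plated overnight at 30 C, dye-loaded for calcium, and read kinetically. Compounds were pinned in, then an EC80 dopamine challenge followed after 180 s to reveal antagonism.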
# [10] = High Content Imaging Cell-Based qHTS for Inhibitors of the mTORC1 Signaling Pathway in MEF Cells (AID 2667); also: potency is read from the fitted curve at half-maximal effect
# Outline: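 WT MEFs (Tsc2-/-, p53-/- re-expressing Tsc2), in DMEM + 10% FBS, were treated with compound for 24 h at 37 C. Cells were then fixed and stained for phospho-rpS6 Ser235/236 with propidium iodide as cell count. Values are % positive cells, with thresholds set against rapamycin-treated cells.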
# [11] = Quantitative high throughput screen for delayed death inhibitors of the malarial parasite plastid, 48 hour incubation (AID 488752); also: potency is read from the fitted curve at half-maximal effect; nearly all actives have a fitted effect of over 65% in size
# Outline: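 Erythrocytes infected with P. falciparum carrying an integrated firefly luciferase reporter (2% hematocrit, 0.1% parasitemia final) were exposed to compounds in RPMI 1640/0.5% Albumax for 48 h at 37 C, 5% CO2. Growth inhibition was scored as reduced luminescence.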
# [12] = Nrf2 qHTS screen for inhibitors: Validation (AID 493153; active = well fitted inhibition curve with a large enough effect in the main read-out, with a control signal flat, not every such curve was filed as active; inconclusive = small, poorly fitted or top-dose-only effect, or effect the other way, or a change in a side signal; inactive = no such curve, though single readings can be large or run the other way; also: potency is read from the fitted curve at half-maximal effect)
# Outline: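 A549 cells carrying an ARE-driven firefly luciferase reporter, in 5% FBS OPTI-MEM, were treated with compounds in concentration-response for 18-24 h at 37°C. Viability was read by CellTiter-Fluor fluorescence, then Nrf2 activity by luciferase luminescence.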
# [13] = Validation screen for small molecules that induce DNA re-replication in SW480 colon adenocarcinoma cells (AID 504364); also: potency is read from the fitted curve at half-maximal effect
# Outline: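 SW480 cells seeded at 250 per well were exposed to compound or DMSO for 48 hr at 37 C, 5% CO2, then stained with Hoechst for 40 min. DNA content per nucleus was imaged (405 nm ex, 500-530 nm em).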
# [14] = molecular target: Papain (Carica papaya) (UniProt P00784); experiment: Primary qHTS assay for inhibitors of the protease papain (AID 1645873)
# [15] = molecular target: Peptidyl-prolyl cis-trans isomerase NIMA-interacting 1 (Homo sapiens) (UniProt Q13526); experiment: qHTS Validation Assay to Find Inhibitors of Pin1 (AID 504536; active = well fitted inhibition curve with a large enough effect in the polarisation, with a control signal flat, not every such curve was filed as active; inconclusive = small, poorly fitted or top-dose-only effect, or effect the other way; the % refers to the polarisation; also: potency is read from the fitted curve at half-maximal effect)
# Outline: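 Fluorescence polarization competition: compounds (titration) displace HiFluor-488-labeled Pin1-1b peptide from Pin1 (0.3 uM final) in pH 7.5 HEPES buffer with DTT, 10 min at room temperature; %Activity normalized to no-enzyme wells, curves fitted.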
# Tags tell the direction and shape of the fitted curve or compound fluorescence and quenching.
# Sequence of UniProt Q99549 (Q99549 whole entry, looked up): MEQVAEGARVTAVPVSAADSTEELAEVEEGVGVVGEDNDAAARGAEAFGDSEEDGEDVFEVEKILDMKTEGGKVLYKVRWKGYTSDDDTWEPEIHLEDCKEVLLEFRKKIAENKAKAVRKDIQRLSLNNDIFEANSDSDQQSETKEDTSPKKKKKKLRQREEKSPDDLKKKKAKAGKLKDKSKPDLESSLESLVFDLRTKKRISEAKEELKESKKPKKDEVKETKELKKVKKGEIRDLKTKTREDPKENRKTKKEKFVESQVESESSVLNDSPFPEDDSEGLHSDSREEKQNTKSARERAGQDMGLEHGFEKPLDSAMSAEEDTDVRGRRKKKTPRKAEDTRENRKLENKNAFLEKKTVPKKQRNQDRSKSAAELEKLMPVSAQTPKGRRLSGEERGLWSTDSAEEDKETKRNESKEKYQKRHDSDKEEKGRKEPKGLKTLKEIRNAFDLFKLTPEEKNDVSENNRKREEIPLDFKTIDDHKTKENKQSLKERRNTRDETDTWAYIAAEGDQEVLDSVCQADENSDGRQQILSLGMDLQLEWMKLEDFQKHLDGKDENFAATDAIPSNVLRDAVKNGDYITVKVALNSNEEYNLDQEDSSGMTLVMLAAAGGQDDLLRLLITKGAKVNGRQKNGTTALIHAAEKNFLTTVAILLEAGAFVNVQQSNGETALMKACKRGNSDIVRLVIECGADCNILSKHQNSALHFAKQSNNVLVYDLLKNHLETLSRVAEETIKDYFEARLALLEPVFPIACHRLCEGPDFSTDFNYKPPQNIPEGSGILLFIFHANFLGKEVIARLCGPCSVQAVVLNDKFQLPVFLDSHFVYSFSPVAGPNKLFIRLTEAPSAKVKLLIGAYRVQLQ
# Sequence of UniProt P21728 (P21728 whole entry, looked up): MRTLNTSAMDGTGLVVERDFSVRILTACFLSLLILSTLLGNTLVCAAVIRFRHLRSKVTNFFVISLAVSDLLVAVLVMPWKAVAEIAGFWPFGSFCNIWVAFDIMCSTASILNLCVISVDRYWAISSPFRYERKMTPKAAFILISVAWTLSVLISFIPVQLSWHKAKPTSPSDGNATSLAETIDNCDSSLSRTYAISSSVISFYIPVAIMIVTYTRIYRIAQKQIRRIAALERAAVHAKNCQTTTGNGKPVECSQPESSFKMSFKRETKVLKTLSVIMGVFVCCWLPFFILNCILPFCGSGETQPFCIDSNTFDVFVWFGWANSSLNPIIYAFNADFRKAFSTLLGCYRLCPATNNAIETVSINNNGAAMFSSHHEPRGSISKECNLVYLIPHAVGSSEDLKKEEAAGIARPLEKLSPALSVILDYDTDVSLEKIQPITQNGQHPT
# Sequence of UniProt P08482 (P08482 whole entry, looked up): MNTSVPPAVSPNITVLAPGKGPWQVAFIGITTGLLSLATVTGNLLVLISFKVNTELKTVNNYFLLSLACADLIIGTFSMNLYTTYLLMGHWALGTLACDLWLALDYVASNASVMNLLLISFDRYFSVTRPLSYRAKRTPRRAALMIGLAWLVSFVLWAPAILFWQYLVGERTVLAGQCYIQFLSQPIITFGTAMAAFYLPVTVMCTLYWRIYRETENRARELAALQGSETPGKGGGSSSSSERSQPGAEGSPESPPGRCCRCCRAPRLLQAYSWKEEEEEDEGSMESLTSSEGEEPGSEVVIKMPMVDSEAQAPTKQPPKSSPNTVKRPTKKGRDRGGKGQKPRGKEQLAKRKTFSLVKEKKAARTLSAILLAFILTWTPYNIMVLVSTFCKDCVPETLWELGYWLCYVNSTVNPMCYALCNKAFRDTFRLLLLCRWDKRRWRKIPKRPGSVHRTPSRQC
# Sequence of UniProt Q07343 (Q07343 whole entry, looked up): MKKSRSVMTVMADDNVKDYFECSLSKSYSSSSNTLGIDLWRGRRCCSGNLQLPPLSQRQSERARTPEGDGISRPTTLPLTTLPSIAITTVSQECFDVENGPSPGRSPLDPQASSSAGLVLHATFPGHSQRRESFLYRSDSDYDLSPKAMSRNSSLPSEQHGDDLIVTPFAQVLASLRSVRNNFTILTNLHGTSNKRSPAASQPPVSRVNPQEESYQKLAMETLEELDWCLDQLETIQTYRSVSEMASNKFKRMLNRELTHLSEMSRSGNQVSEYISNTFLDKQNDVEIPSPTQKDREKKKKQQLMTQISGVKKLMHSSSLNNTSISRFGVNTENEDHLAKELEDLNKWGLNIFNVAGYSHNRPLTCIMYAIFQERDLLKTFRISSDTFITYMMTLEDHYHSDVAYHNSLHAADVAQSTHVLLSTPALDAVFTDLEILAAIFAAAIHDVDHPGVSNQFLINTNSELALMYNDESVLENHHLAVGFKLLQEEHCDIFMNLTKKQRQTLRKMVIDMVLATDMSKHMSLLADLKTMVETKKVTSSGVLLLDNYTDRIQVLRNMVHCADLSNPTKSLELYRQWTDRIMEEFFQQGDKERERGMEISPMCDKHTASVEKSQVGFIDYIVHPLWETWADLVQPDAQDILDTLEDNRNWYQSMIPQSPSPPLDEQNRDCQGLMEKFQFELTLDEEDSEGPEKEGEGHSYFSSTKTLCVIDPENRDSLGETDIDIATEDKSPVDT
# Sequence of UniProt O89049 (O89049 whole entry, looked up): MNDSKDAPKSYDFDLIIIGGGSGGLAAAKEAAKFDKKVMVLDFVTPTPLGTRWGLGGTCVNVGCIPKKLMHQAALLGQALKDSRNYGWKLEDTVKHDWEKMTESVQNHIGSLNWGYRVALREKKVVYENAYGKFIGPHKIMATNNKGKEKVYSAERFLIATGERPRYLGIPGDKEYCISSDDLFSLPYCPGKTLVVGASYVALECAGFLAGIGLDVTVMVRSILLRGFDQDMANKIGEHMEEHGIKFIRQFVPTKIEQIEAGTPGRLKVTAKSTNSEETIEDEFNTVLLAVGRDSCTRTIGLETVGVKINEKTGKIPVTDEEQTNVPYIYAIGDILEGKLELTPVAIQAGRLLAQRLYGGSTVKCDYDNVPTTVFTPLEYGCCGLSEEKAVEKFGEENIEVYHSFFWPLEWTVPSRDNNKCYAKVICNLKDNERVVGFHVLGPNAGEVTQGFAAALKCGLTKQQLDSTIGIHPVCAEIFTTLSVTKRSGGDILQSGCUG
# Sequence of UniProt Q13526 (Q13526 whole entry, looked up): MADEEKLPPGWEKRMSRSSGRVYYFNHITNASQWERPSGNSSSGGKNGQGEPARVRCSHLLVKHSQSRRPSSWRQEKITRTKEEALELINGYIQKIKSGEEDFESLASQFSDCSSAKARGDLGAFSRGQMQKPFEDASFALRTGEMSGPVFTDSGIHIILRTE
# Sequence of UniProt P00784 (P00784 whole entry, looked up): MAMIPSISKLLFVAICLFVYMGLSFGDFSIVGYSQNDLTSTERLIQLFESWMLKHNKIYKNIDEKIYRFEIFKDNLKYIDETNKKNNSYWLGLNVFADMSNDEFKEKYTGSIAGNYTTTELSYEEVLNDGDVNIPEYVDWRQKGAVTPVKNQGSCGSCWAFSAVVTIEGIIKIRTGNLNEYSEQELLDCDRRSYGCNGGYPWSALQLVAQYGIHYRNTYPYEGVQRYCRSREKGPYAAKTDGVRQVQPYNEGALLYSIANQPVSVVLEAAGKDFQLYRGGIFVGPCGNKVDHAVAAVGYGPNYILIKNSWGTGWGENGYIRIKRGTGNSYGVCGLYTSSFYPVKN
smiles,measurement,setting,value
C=CCN1CCc2cccc3c2[C@H]1Cc1ccc(O)c(O)c1-3,activity change,[1],inconclusive: -22.5%
same,Potency,[2],active: 5.97 µM
same,Potency,[3],active: 0.794 µM
CN1CCC(c2c[nH]c3ccc(O)cc23)CC1,"activity change, negative = inhibition",[4],inactive: -5.82% [at 38 µM]
same,Potency,[5],"inactive and inconclusive: 19 µM [inhibitor, single point]"
same,Potency,[6],"inconclusive: 10 µM [inhibitor, partial curve, poor fit]"
same,Potency,[7],"inconclusive: 15.8 µM [inhibitor, partial curve, poor fit]"
NC(CP(=O)(O)O)C(=O)O (stereo unspecified),Potency,[8],inactive
same,Potency,[9],inactive
Oc1ccc2c3c1O[C@H]1c4oc5ccccc5c4C[C@@]4(O)C(C2)N(CC2CC2)CCC314 (stereo partly specified),Potency,[10],"inconclusive: 23.3 µM [falling, single point]"
same,Potency,[11],"inconclusive: 11.7 µM [inhibitor, single point]"
NC(N)=NOCCC(N)C(=O)O (stereo unspecified),Potency,[7],"inconclusive: 7.94 µM [inhibitor, partial curve, poor fit]"
O=S1(=O)N(CCN2CC=C(c3c[nH]c4cc(F)ccc34)CC2)c2cccc3c2N1CCC3,"activity change, negative = inhibition",[4],inactive: -17.5% [at 38 µM]
same,Potency,[6],"inconclusive: 10 µM [inhibitor, partial curve]"
same,Potency,[7],active: 14.1 µM
same,Potency,[11],active: 1.47 µM
same,Potency,[8],"inconclusive: 50.1 µM [inhibitor, partial curve] and inconclusive: 37.7 µM [inhibitor, single point]"
same,Potency,[9],"inconclusive: 2.24 µM [inhibitor, full curve]"
same,Potency,[12],active: 23.1 µM
same,Potency,[13],"inconclusive: 20.6 µM [activator, partial curve, poor fit]"
c1ccc2c(N3CCNCC3)cccc2c1,Potency,[7],"inconclusive: 25.1 µM [inhibitor, partial curve, poor fit]"
same,Potency,[8],"inconclusive: 79.4 µM [inhibitor, partial curve, poor fit]"
same,Potency,[9],"inconclusive: 5.01 µM [inhibitor, partial curve]"
same,Potency,[14],"inconclusive: 31.6 µM [inhibitor, single point]"
CCCN(CCC)C1CCc2cccc(O)c2C1 (stereo unspecified),Potency,[3],inactive
same,Potency,[15],"inconclusive: 37.9 µM [falling, single point]"
